This assay addresses SARS-CoV-2 Wuhan-Hu-1 spike receptor-binding domain. Put plainly: ELISA binding EC50; higher = weaker binding; ELISA of recombinant human antibody on coated antigen, from 10 µg/ml in fourfold dilutions; four-parameter fit.

Substitutions are numbered along the chain they refer to. Recombinant human monoclonal antibodies (heavy:light variable regions). ELISA EC50 on the named antigen, from 10 µg/ml down; lower = stronger. No active / inactive call.

B1: C1008 (protein)
chain 1: EVQLVESGGGLIQPGGSLRLSCAASGFTVSSNYMSWVRQAPGKGLEWVSVIYSGGSTYYADSVKGRFTISRDNSKNTLYLQMNSLRAEDTAVYYCARVVGYDFWSGYDGGYFDYWGQGTLVTVSS
chain 2: QSALTQPASVSGSPGQSITISCTGTSSDVGSYNLVSWYQQHPGKAPKLMIYEVSKRPSGVSNRFSGSKSGNTASLTISGLQAEDEADYYCCSYAGSSTWVFGGGTKLTVL
With B1, the “ELISA binding EC50” value was 17.2 ng/mL.

B2: C1009 (protein)
chain 1: EVQLVESGGGLLQPGGSLRLSCAASGFSVSSNYMTWVRQAPGKGLEWVAAIYSGDSTYYVDSVKGRFIISRDNSKNTVYLHLSSLRAEDTAVYYCARLVGYDFRSGSDGGYFDYWGHGTLVTVSS
chain 2: B1 chain 2 with V29I, S31N, E52D, A86T
Turning to B2, the “ELISA binding EC50” value worked out at 1.34 ng/mL.

B3: C997 (protein)
chain 1: EVQLLESGGGLVQPGGSLRLSCAASGFTFSKDAMSWVRQAPGKGLEWVSTVTGSGTNTYYADSVKGRFTISRDNSNNTLYLQMNSLRAEDTAVYYCANHPLGAAEGYYYYYMDVWGKGTTVTVSS
chain 2: EIVLTQSPGTLSLSPGERGTLSCRASQRVPSSQLAWYQQKSGQAPRLLIYGASSRASGIPDRFSGSGSGTDFTLNISRLEPEDFAVYYCQQYGSLRALTFGGGTKVEIK
On to B3, for which the “ELISA binding EC50” value was 3.49 ng/mL.

B4: C1006 (protein)
chain 1: QVQLVQSGAEVRKPGSSVKVSCKASGGPFDQYTFSWVRQAPGQGLEWMARITPVVDLTNYAQKFQGRITIITDKSTSTAYMELSSLRSEDTAIYYCATPLNDYYASGNLGLWGQGTLVTVSS
chain 2: DIQMTQSPSSLSASIGDRVTITCRASQGISYYLAWFQQKPGEAPRSLIYDASSLQSGVPSKFSGSGSGTDFTLTISSLQPEDSATYYCQQYNSYPLTFGGGTKVEIK
B4: the “ELISA binding EC50” value stood at 2.04 ng/mL.

B5: C1007 (protein)
chain 1: QVQLVQSGSEMKKPGSSVKVSCKAAGGTLNTHTFSWVRQAPGQGLEWMGRITPTVDLTNYAQKFQGRITITADTSTNTAYLELRRLRSEDTAIYYCATPLNDYYASGNLGLWGQGTLVTVSS
chain 2: B4 chain 2 with R18T, Q38R, E42K, R45K, N92S, S93T
Regarding B5, the “ELISA binding EC50” value came to 3.22 ng/mL.

B6: C998 (protein)
chain 1: QVQLVQSGAEVKKPGASVKVSCKTSGYTFISYYIHWVRQAPGQGLEWMGIINPDGDNTNYAQKFQGRVTMTRDTSTSTVYMELSSLRFEDTAVYYCARGGAIPALRTAFDIWGQGTMVTVSS
chain 2: DIQMTQSPSTLSASVGDRVTITCRASQSISNWLAWYQQKPGKAPKLLIYKASSLESGVPSRFSGSGSGTEFTLTISSLQPDDFATYYCQEYNSYYFGQGTKLEIK
On to B6, for which the “ELISA binding EC50” value was found to be 2.51 ng/mL.

B7: C999 (protein)
chain 1: QVQLVQSGAEVRRPGASVKVSCKASGYTLTHYYIHWVRQAPGQGLEWVGIINPDGDNTNYAQKFQGRVTMTRDTSTSTVYMELSSLRSEDTAIFYCARGGAIPALRSAFDIWGQGTMVTVSS
chain 2: B6 chain 2 with S30N, S53T, E90Q, Y95F
As for B7, the “ELISA binding EC50” value worked out at 2.68 ng/mL.

B8: C996 (protein)
chain 1: EVQLVESGGGLVQPGGSLRLSCVASGFTSTNYDMHWVRQAPGRGLQWVSSIGTAGDTYYPGSVRGRFTISRENAKNSLDLQMNSLRVGDTAVYYCARGQRGYYDRSGYYWGWRAFDIWGQGTMVTVSS
chain 2: SYELTQPPSVSVAPGQTARITCGGNNIGNKSVYWYQQKPGQAPVLVVYDDSGRPSGIPERFSGSNSANTATLTISRVEAGDEADYYCQVWDNNSDQFGGGTKLTVL
As for B8, the “ELISA binding EC50” value turned out to be 3.07 ng/mL.

B9: C993 (protein)
chain 1: EVQLLESGGGLVQPGGSLRLSCAASGFPFSIYAMSWVRQAPGKGLEWVSGMRGTTGTTYYADSVKGRFAISRDNSKNMLHLQMNSLRAEDTAVYYCAKSDHGDYVIGAFDIWGQGTMVTVSS
chain 2: QSALTQPPSASGSPGQSVTISCTGTSGDVGGYNYVSWYQQHPGKAPKLMIYEVSKRPSGVPDRFSGSKSGNTASLTVSGLQAEDEADYYCNSYAGSNNWVFGGGTKLTVL
With B9, the “ELISA binding EC50” value worked out at 2.29 ng/mL.

B10: C1000 (protein)
chain 1: QVQLQESGPGLVKPSQTLSLSCTVSGGSISSDDYYWSWIRQPPGKGLEWIGYIYYSGSTYYNSSLKSRVSISVDTSKNQFSLKLSSVTAADTAVYYCARWKRWLQFLYFDYWGQGTLVTVSS
chain 2: QSALTQPRSVSGSPGQSVTISCTGTSSDVGGYSFVSWYQQHPGKAPKVLIYDVDKRPSGVPDRLSGSKSGNTASLTISGLQAEDEADYYCCSYAGSYTLIFGGGTKLTVL
For B10, the “ELISA binding EC50” value came out at 3.2 ng/mL.

B11: C1001 (protein)
chain 1: QVQLQESGPGLVKPSQTLSLTCTVSGGSISSGDYYWTWIRQPPGKGLEWIGYIFYSGITYYSPSLKSRLTMSIDTSKSQFSLNLSSVTAADTAVYYCARWKRLLQSLHFDYWGQGILVTVSS
chain 2: QSALTQPRSVSGSPGQSVTISCTGTSSDVGSYDYVSWYQQHPGKAPKVMIYGVDERPSGVPHRFSGSKSGNTASLTISGLQADDEADYFCCFYAGSYTLLFGGGTKVTVL
On to B11, for which the “ELISA binding EC50” value amounted to 3.23 ng/mL.

B12: C1012 (protein)
chain 1: QVQLVQSGAEVKKPGSSVKVSCKASGGTVNNYAINWVRQAPGQGLEWMGGIVPIFGTPNYAQKFQGRVTITADESTSTAYMELSSLRSEDTAVYYCAKVSLTLPIAAAPRFWFDSWGQGTLVTVSS
chain 2: EIVMTQSPATLSVSPGERATLSCRASQSVSSHLAWYQQKPGQAPRLLIYGASTRATGIPARFSGSGSGTEFTLTISSLQSEDFAVYYCQQYHNWPPALTFGGGTKVEIK
Consider B12, for which the “ELISA binding EC50” value was 3.29 ng/mL.

B13: C995 (protein)
chain 1: EVQLVESGGGLIQPGRSLRLSCTASGFSVGDYAMSWFRQAPGKGLEWVGFLRNQHYGGTAEYAASVKGRFSISTDASKNIVYLQMDSLKTEDTAVYYCARNDRYIVIVPAEMLYWGQGTLVTVSS
chain 2: EIVMTQSPATLSVSPGERATLSCRATESVYSNLAWYQQKPGQAPRLLMYDASTRAPGIPARFSGSGSGTEFTLTISSLQSEDFATYYCQQYSNWPPITFGQGTRLEIK
Take B13: the “ELISA binding EC50” value stood at 3.79 ng/mL.

B14: C1002 (protein)
chain 1: EVQLVESGGGLVQPGGSLRLSCAASEFIVSSNYMTWVRQAPGKGLEWVSIMYPGGSTFYADSVKGRFTISRDNSKNTLYLQINRLRAEDTAVYYCARDIAGRLDYWGQGTLVTVSS
chain 2: DIQMTQSPSSLSASVGDRVTITCQASQDINNYLNWYQQKPGKAPKLLIYDASNLETGVPSRFSGSGSGTDFSFTISSLQPEDIATYYCQQYDNLSRLTFGGGTKVEIK
As for B14, the “ELISA binding EC50” value stood at 0.83 ng/mL.

B15: C1010 (protein)
chain 1: QVQLVESGGGVVQPGRSLRLSCAASGFTFSSYAMHWVRQAPGKGLEWVAVISYDGSNKYYADSVKGRFTISRDNSKNTLYLQMNSLRAEDTAVYYCAKKGQPYCGGDCYFYYFDYWGQGTLVTVSS
chain 2: B14 chain 2 with V15L, N30S, S72T, S95P, R96P, L97I, G101Q, K104R, V105L
In the case of B15, the “ELISA binding EC50” value turned out to be 2.45 ng/mL.

B16: C1011 (protein)
chain 1: QVQLVESGGGVVQPGRSLRLSCAVSGFTFSHYAMHWVRQAPGKGLEWVAVISYDGADKYYADSVRGRFTIARDNSKNTLFLQMSSLRPEDTAVYYCAKKGQPYCGGDCHFYYLDYWGQGTLVTVSS
chain 2: B14 chain 2 with N30S, Y32H, S72T, P80A, S95P, R96P, L97I, G101Q, K104R, V105L
B16: the “ELISA binding EC50” value was determined as 1.49 ng/mL.

B17: C844 (protein)
chain 1: EVQLVESGGGLVKPGGSLRLSCVATGFSFSDAWMNWVRQAPGKGLEWVGRIRSEIADGTTDYAAPVKGRFTISRDDARNTLYLQMNSLEIEDTAVYYCTTGVVVVVSSSPDDAFDVWGQGTMVTVSS
chain 2: DIQMTQSPSSLSASVGDRVTITCRASQSIGHYLNWYQQKPGKAPKLLIYAASSLQSGVPSRFSGSGSGAGFTLTVNGLQPEDLATYYCQQYYTTPPTFGQGTKVEIK
For B17, the “ELISA binding EC50” value came to 1.28 ng/mL.

B18: C1003 (protein)
chain 1: QVQLVESGGGVVQPGRSLRLSCAASGFAFSSYGMNWVRQAPGKGLEWVTTVSSDGNVNYYIDSVKGRFTISRDNSKNTLYLQMNSLRGDDTAVYYCAKGPRFGWSYRGGSGFDIWGQGTMVTVSS
chain 2: DIQMTQSPSSLSASVGDRVTITCQASQDISNYLNWYQQKPGKAPKLLIYDASNLETGVPSRFSGSGSGTDFTFTITSLQPEDIATYYCQQYDNLPITFGQGTRLEIK
As for B18, the “ELISA binding EC50” value came out at 1.82 ng/mL.

B19: C994 (protein)
chain 1: QVQLQESGPGLVKPSGTLSLTCAVSGVSISNTNWWNWVRQPPGKGLEWIGEIYHTGSARYNPSLRSRVTISVDKSKNQFSLRLNSATAADTAIYYCARAQTPEFGELLYWGQGALVTVSS
chain 2: DIQMTQSPSSLSASVGDRVTITCRASQSITDHLNWYQQKPGKAPKLLIYAASSLQTGVPSRFSGSGSETDFTLTISTLQPEDFATYYCQQSYGPPTYSFGQGTKLEIK
As to B19, the “ELISA binding EC50” value was found to be 2.09 ng/mL.

The record behind these values is the supplement of paper PMC8277577.
